Source: article PMC9911596 (Nature Communications, 2023)
Positions count from the first letter of the chain named. Results are given in words; binding and its absence hold for the method and conditions named. Some binding calls cover weakened binding; strength is not graded here.

Protein sequences, listed by entry. Tags and fused reporters are not part of them. Lines headed by an entry give the natural chain unless they say otherwise; changes in a name come on top.
UniProt P47075: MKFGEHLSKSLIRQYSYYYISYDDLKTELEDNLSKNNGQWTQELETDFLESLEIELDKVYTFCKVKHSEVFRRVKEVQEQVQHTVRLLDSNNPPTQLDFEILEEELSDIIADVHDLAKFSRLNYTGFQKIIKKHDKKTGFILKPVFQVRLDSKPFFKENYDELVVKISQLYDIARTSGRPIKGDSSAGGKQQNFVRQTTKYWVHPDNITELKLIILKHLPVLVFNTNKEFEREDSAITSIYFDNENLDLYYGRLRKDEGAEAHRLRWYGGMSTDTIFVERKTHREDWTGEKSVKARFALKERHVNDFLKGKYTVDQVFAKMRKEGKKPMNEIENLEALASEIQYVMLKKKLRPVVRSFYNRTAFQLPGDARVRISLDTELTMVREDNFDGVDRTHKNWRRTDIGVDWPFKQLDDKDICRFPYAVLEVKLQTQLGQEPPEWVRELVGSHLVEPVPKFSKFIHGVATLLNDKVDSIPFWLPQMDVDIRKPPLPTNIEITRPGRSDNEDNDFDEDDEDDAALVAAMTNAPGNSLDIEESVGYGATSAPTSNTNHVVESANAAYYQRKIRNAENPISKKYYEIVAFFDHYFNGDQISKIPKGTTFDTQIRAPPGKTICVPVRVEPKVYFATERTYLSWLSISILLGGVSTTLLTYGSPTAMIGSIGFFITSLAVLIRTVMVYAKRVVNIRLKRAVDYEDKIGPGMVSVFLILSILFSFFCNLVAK

Key:
Experiment in all cases: tandem affinity co-purification (anti-Flag resin, then Strep-Tactin resin) with SDS-PAGE; three subunits co-expressed in Expi293F; complex purified by 3×Flag on Vtc3 and 2×Strep on Vtc4; no InsP6 added, 0.02% DDM
[1] = molecular target: T1, Vtc3_(K126A/K129A/K133A) (Baker's yeast) (UniProt Q02725)
T1 sequence: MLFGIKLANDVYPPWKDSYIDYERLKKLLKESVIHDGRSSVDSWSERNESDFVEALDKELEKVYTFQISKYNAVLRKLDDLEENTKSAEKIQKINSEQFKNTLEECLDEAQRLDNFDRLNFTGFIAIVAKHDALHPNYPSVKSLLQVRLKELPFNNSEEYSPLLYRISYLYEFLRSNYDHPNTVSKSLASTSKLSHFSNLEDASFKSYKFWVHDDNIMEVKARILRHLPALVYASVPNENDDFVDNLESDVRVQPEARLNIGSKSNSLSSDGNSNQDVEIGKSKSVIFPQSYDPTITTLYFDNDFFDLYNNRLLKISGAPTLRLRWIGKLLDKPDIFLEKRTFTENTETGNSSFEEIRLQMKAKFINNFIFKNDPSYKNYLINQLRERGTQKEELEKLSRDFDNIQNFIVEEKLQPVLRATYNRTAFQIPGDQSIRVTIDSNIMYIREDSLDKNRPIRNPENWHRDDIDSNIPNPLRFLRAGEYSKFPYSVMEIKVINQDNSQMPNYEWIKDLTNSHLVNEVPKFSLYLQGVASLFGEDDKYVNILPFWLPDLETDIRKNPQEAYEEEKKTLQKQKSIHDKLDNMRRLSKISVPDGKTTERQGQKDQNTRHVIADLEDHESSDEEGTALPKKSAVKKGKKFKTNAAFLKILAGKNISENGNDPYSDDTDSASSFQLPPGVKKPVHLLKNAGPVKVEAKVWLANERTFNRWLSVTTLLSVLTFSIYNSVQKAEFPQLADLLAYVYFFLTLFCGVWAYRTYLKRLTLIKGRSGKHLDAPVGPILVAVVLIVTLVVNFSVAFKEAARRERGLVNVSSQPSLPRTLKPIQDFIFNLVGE

[2] = molecular target: T2, Vtc3 (Baker's yeast, UniProt Q02725 1-835)
T2 construct: Vtc3, yeast, UniProt Q02725; codon-optimized DNA in the pMlink vector; source: Expi293F cells, transiently cotransfected with the Vtc1 and Vtc4 plasmids; purified as part of the VTC complex (anti-Flag resin, Strep-Tactin resin; SEC for the cryo-EM sample); not shown: 3×Flag, N-terminal, kept
T2 sequence: T1 sequence with A126K, A129K, A133K

[3] = molecular target: Vtc4_(Y22F/K26A/K133A) (Baker's yeast) (UniProt P47075)
[4] = molecular target: Vtc4_(K129A/K132A/K136A) (Baker's yeast) (UniProt P47075)
[5] = molecular target: Vtc4 (Baker's yeast) (UniProt P47075)
[6] = molecular target: Vtc4_(K300A/R302A/K320A) (Baker's yeast) (UniProt P47075)
[7] = molecular target: Vtc4_(K622A/R629A) (Baker's yeast) (UniProt P47075)

Measured: binding

Vtc4 (from UniProt P47075 2-721)
binds: [1] | [2]

B1: Vtc1 (natural protein, Baker's yeast)
chain: SSAPLLQRTPGKKIALPTRVEPKVFFANERTFLSWLNFTVMLGGLGVGLLNFGDKIGRVSAGLFTFVAMGTMIYALVTYHWRAAAIRRRGSGPYDDRLGPTLLCFFLLVAVIINFILRLKYNDANTKL
notes: Vtc1, yeast, UniProt P40046; codon-optimized DNA in the pMlink vector; Three copies of Vtc1 stand in the Vtc1/Vtc3/Vtc4 complex (3:1:1); also called Vtc1A; Vtc1B; source: Expi293F cells, transiently cotransfected with the Vtc3 and Vtc4 plasmids; purified as part of the VTC complex (anti-Flag resin, Strep-Tactin resin; SEC for the cryo-EM sample)
binds: [3] | [4] | [1] | [5] | [6] | [7]
